The assay addresses T1, podoplanin (human, UniProt Q86YL7 23-162, O-glycosylated with alpha2,3-sialyl glycans).
T1 construct: whole, on cells; Endogenous protein from LEC lysates in the pulldowns and co-immunoprecipitation; also called PDPN
T1 sequence (looked up): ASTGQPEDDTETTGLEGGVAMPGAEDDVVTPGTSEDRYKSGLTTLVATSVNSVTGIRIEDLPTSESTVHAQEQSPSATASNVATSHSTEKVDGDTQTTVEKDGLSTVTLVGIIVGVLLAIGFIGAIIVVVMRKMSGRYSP
Put plainly: galectin-agarose pulldown from LEC lysates, anti-PDPN western blot (FIG. 7A). A general note: Immunoblotting shows a protein as a band on a membrane.

B1: recombinant galectin-1 (other)
chain: not shown
notes: also called Gal-1
As to B1, the binding result is recorded as “no binding”.

For the origin of these results see patent US20170202915A1 (TUFTS UNIVERSITY, published 2017).
